Data as given in the supplement of paper PMC8728848.
Some of the results follow.

Tests used:
Test in all cases: glycan array binding signal (z-score within array); higher = stronger binding
Settings in all cases: glycan notation: IUPAC condensed, linker removed
[1] = target: Man(a1-2)Man(a1-3)[Man(a1-2)Man(a1-6)]Man
Procedure, shortened: (§1)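 The binding signal is a Z-score computed within each array and averaged over linkers. Arrays of the same protein sequence at different concentrations or buffers were also averaged together. Data originate from 3228 arrays in the Consortium for Functional Glycomics database, kept only where the protein sequence was available.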

[2] = target: Man(a1-2)Man(a1-3)[Man(a1-2)Man(a1-6)]Man(a1-6)[Man(a1-2)Man(a1-2)Man(a1-3)]Man
Procedure, shortened: as §1

[3] = target: Man(a1-2)Man(a1-3)[Man(a1-2)Man(a1-6)]Man(a1-6)[Man(a1-2)Man(a1-2)Man(a1-3)]Man(b1-4)GlcNAc(b1-4)GlcNAc
Procedure, shortened: as §1

[4] = target: Man(a1-2)Man(a1-3)[Man(a1-6)]Man(a1-6)[Man(a1-2)Man(a1-3)]Man(b1-4)GlcNAc(b1-4)GlcNAc
Procedure, shortened: as §1

[5] = target: Man(a1-2)Man(a1-6)[Man(a1-3)]Man(a1-6)[Man(a1-2)Man(a1-2)Man(a1-3)]Man
Procedure, shortened: as §1

[6] = target: Man(a1-2)Man(a1-6)[Man(a1-3)]Man(a1-6)[Man(a1-2)Man(a1-2)Man(a1-3)]Man(b1-4)GlcNAc(b1-4)GlcNAc
Procedure, shortened: as §1

[7] = target: Man(a1-3)[Man(a1-6)]Man
Procedure, shortened: as §1

[8] = target: Man(a1-3)[Man(a1-6)]Man(a1-6)[Man(a1-2)Man(a1-3)]Man(b1-4)GlcNAc(b1-4)GlcNAc
Procedure, shortened: as §1

[9] = target: Man(a1-3)[Man(a1-6)]Man(a1-6)[Man(a1-3)]Man
Procedure, shortened: as §1

[10] = target: Man(a1-3)[Man(a1-6)]Man(a1-6)[Man(a1-3)]Man(b1-4)GlcNAc(b1-4)GlcNAc
Procedure, shortened: as §1

[11] = target: Man(a1-3)[Man(a1-6)]Man(b1-4)GlcNAc(b1-4)GlcNAc
Procedure, shortened: as §1

[12] = target: Man(a1-3)[Man(a1-6)]Man(b1-4)GlcNAc(b1-4)[Fuc(a1-6)]GlcNAc
Procedure, shortened: as §1

[13] = target: Man(a1-6)Man
Procedure, shortened: as §1

[14] = target: Man(b1-4)GlcNAc
Procedure, shortened: as §1

[15] = target: MurNAc(b1-4)GlcNAc
Procedure, shortened: as §1

[16] = target: Neu5Ac(a2-3)Gal
Procedure, shortened: as §1

[17] = target: Neu5Ac(a2-3)Gal(b1-3)GalNAc
Procedure, shortened: as §1

[18] = target: Neu5Ac(a2-3)Gal(b1-3)GalNAc(b1-3)Gal(a1-4)Gal(b1-4)Glc
Procedure, shortened: as §1

[19] = target: Neu5Ac(a2-3)Gal(b1-3)GalNAc(b1-4)[Neu5Ac(a2-3)]Gal(b1-4)Glc
Procedure, shortened: as §1

[20] = target: Neu5Ac(a2-3)Gal(b1-3)GalNAc(b1-4)[Neu5Ac(a2-8)Neu5Ac(a2-3)]Gal(b1-4)Glc
Procedure, shortened: as §1

[21] = target: Neu5Ac(a2-3)Gal(b1-3)GalNAc6S
Procedure, shortened: as §1

[22] = target: Neu5Ac(a2-3)Gal(b1-3)GlcNAc
Procedure, shortened: as §1

[23] = target: Neu5Ac(a2-3)Gal(b1-3)GlcNAc(b1-2)Man
Procedure, shortened: as §1

[24] = target: Neu5Ac(a2-3)Gal(b1-3)GlcNAc(b1-2)Man(a1-3)[GlcNAc(b1-4)][Neu5Ac(a2-3)Gal(b1-3)GlcNAc(b1-2)Man(a1-6)]Man(b1-4)GlcNAc(b1-4)GlcNAc
Procedure, shortened: as §1

[25] = target: Neu5Ac(a2-3)Gal(b1-3)GlcNAc(b1-2)Man(a1-3)[Neu5Ac(a2-3)Gal(b1-3)GlcNAc(b1-2)Man(a1-6)]Man(b1-4)GlcNAc(b1-4)GlcNAc
Procedure, shortened: as §1

[26] = target: Neu5Ac(a2-3)Gal(b1-3)GlcNAc(b1-3)Gal(b1-3)GlcNAc
Procedure, shortened: as §1

[27] = target: Neu5Ac(a2-3)Gal(b1-3)GlcNAc(b1-3)Gal(b1-4)GlcNAc
Procedure, shortened: as §1

[28] = target: Neu5Ac(a2-3)Gal(b1-3)GlcNAc(b1-3)GalNAc
Procedure, shortened: as §1

[29] = target: Neu5Ac(a2-3)Gal(b1-3)GlcNAc(b1-4)Gal(b1-4)Glc
Procedure, shortened: as §1

[30] = target: Neu5Ac(a2-3)Gal(b1-3)GlcNAc(b1-6)GalNAc
Procedure, shortened: as §1

[31] = target: Neu5Ac(a2-3)Gal(b1-3)GlcNAc6S
Procedure, shortened: as §1

[32] = target: Neu5Ac(a2-3)Gal(b1-3)[Fuc(a1-4)]GlcNAc
Procedure, shortened: as §1

[33] = target: Neu5Ac(a2-3)Gal(b1-3)[Fuc(a1-4)]GlcNAc(b1-3)Gal(b1-3)[Fuc(a1-4)]GlcNAc
Procedure, shortened: as §1

[34] = target: Neu5Ac(a2-3)Gal(b1-3)[Fuc(a1-4)]GlcNAc(b1-3)Gal(b1-4)[Fuc(a1-3)]GlcNAc
Procedure, shortened: as §1

[35] = target: Neu5Ac(a2-3)Gal(b1-3)[GlcNAc(b1-6)]GalNAc
Procedure, shortened: as §1

[36] = target: Neu5Ac(a2-3)Gal(b1-3)[Neu5Ac(a2-3)Gal(b1-4)]GlcNAc
Procedure, shortened: as §1

[37] = target: Neu5Ac(a2-3)Gal(b1-3)[Neu5Ac(a2-6)]GalNAc
Procedure, shortened: as §1

[38] = target: Neu5Ac(a2-3)Gal(b1-3)[Neu5Ac(a2-6)]GlcNAc(b1-3)[Fuc(a1-3)[Gal(b1-4)]GlcNAc(b1-6)]Gal(b1-4)Glc
Procedure, shortened: as §1

[39] = target: Neu5Ac(a2-3)Gal(b1-3)]Neu5Ac(a2-3)Gal(b1-4)]GlcNAc
Procedure, shortened: as §1

[40] = target: Neu5Ac(a2-3)Gal(b1-4)Glc
Procedure, shortened: as §1

[41] = target: Neu5Ac(a2-3)Gal(b1-4)GlcNAc
Procedure, shortened: as §1

[42] = target: Neu5Ac(a2-3)Gal(b1-4)GlcNAc(b1-2)Man
Procedure, shortened: as §1

[43] = target: Neu5Ac(a2-3)Gal(b1-4)GlcNAc(b1-2)Man(a1-3)[GlcNAc(b1-2)Man(b1-4)GlcNAc(b1-2)Man(a1-6)]Man(b1-4)GlcNAc(b1-4)GlcNAc
Procedure, shortened: as §1

[44] = target: Neu5Ac(a2-3)Gal(b1-4)GlcNAc(b1-2)Man(a1-3)[GlcNAc(b1-4)][Neu5Ac(a2-3)Gal(b1-4)GlcNAc(b1-2)Man(a1-6)]Man(b1-4)GlcNAc(b1-4)GlcNAc
Procedure, shortened: as §1

[45] = target: Neu5Ac(a2-3)Gal(b1-4)GlcNAc(b1-2)Man(a1-3)[Neu5Ac(a2-3)Gal(b1-4)GlcNAc(b1-2)Man(a1-6)]Man(b1-4)GlcNAc(b1-4)GlcNAc
Procedure, shortened: as §1

B1: rCNL (Clitocybe nebularis), B2ZRS9 (protein)
chain: SITPGTYNITNVAYTNRLIDLTGSNPAENTLIIGHHLNKTPSGYGNQQWTLVQLPHTTIYTMQAVNPQSYVRVRDDNLVDGAALVGSQQPTPVSIESAGNSGQFRIKIPNLGLALTLPSDANSTPIVLGEVDETSTNQLWAFESVSAV
[1]
  glycan array binding signal (z-score): -0.299
[2]
  glycan array binding signal (z-score): -0.314
[3]
  glycan array binding signal (z-score): -0.173
[4]
  glycan array binding signal (z-score): -0.308
[5]
  glycan array binding signal (z-score): -0.296
[6]
  glycan array binding signal (z-score): -0.302
[7]
  glycan array binding signal (z-score): -0.306
[8]
  glycan array binding signal (z-score): 0.133
[9]
  glycan array binding signal (z-score): -0.296
[10]
  glycan array binding signal (z-score): -0.285
[11]
  glycan array binding signal (z-score): 0.297
[12]
  glycan array binding signal (z-score): -0.218
[13]
  glycan array binding signal (z-score): -0.294
[14]
  glycan array binding signal (z-score): -0.298
[15]
  glycan array binding signal (z-score): -0.214
[16]
  glycan array binding signal (z-score): -0.274
[17]
  glycan array binding signal (z-score): -0.311
[18]
  glycan array binding signal (z-score): -0.26
[19]
  glycan array binding signal (z-score): -0.313
[20]
  glycan array binding signal (z-score): -0.21
[21]
  glycan array binding signal (z-score): -0.232
[22]
  glycan array binding signal (z-score): -0.311
[23]
  glycan array binding signal (z-score): -0.219
[24]
  glycan array binding signal (z-score): -0.218
[25]
  glycan array binding signal (z-score): -0.45
[26]
  glycan array binding signal (z-score): -0.276
[27]
  glycan array binding signal (z-score): -0.232
[28]
  glycan array binding signal (z-score): -0.275
[29]
  glycan array binding signal (z-score): -0.224
[30]
  glycan array binding signal (z-score): -0.213
[31]
  glycan array binding signal (z-score): -0.238
[32]
  glycan array binding signal (z-score): -0.323
[33]
  glycan array binding signal (z-score): -0.303
[34]
  glycan array binding signal (z-score): -0.314
[35]
  glycan array binding signal (z-score): -0.225
[36]
  glycan array binding signal (z-score): -0.309
[37]
  glycan array binding signal (z-score): -0.293
[38]
  glycan array binding signal (z-score): -0.227
[39]
  glycan array binding signal (z-score): -0.223
[40]
  glycan array binding signal (z-score): -0.302
[41]
  glycan array binding signal (z-score): -0.188
[42]
  glycan array binding signal (z-score): -0.174
[43]
  glycan array binding signal (z-score): -0.236
[44]
  glycan array binding signal (z-score): -0.226
[45]
  glycan array binding signal (z-score): -0.22
